Sequences with one replicate were seen in a single cluster, so their values are uncertain.
The sequences below were run on ATP (assay: switch fluorescence ratio, 500 uM ATP over buffer (Cy3 cluster intensity, sum of 5 cycles each) (fold (ratio)); higher = stronger signal-on switching upon ATP binding; sequences stand for … in TCGTCGGCAGCGTCAGATGTGTATAAGAGACAGTTTTTTTTTTTTTTTTTTTTTTTTT…TC). Details: aptamer strand: ATP DNA aptamer (quencher-CACCTGGGGGAGTATTGCGGAGGAAGG + anchor), 100 nM annealed; ATP concentration: 500 uM; one replicate.
Procedure, shortened: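 Between each of five buffer/ATP cycles, the flow-cell was stripped with NaOH and re-annealed. Each cycle imaged Cy3-labelled switching-strand clusters, annealed to 100 nM quencher-labelled ATP aptamer on a modified Illumina MiSeq flow-cell, first in selection buffer and then after 15 min with 500 uM ATP at 22 °C. The fluorescence ratio is summed target-cycle over summed buffer-cycle Cy3 intensity per cluster, averaged per switch-domain sequence, with clusters outside 100-1000 RFU excluded.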
Sequence CATGGTCAGC has a switch fluorescence ratio of 1.01.
With CATGTAAAAG the switch fluorescence ratio was 0.997.
CATGTAACTG was tested, and the switch fluorescence ratio was 0.978.
CATGTAGAGT showed a switch fluorescence ratio of 1.05.
For CATGTCCTGC, the switch fluorescence ratio was 0.971.
Work on CATGTGAGAT yielded a switch fluorescence ratio of 0.983.
For CATGTTCCCG, the switch fluorescence ratio was 1.
CATTACCCTC gave a switch fluorescence ratio of 1.
Sequence CATTACGGAA has a switch fluorescence ratio of 1.09.
Sequence CATTACGTTA has a switch fluorescence ratio of 1.15.
CATTACGTTC showed a switch fluorescence ratio of 1.
Sequence CATTACTGTG has a switch fluorescence ratio of 1.01.
For CATTAT, the switch fluorescence ratio was 1.05.
CATTATACGA was tested, and the switch fluorescence ratio was 1.05.
In the case of CATTATACTG, the switch fluorescence ratio is reported as 0.987.
CATTATAGTA showed a switch fluorescence ratio of 0.985.
For CATTATATAT, the switch fluorescence ratio was 1.02.
With CATTATGATT the switch fluorescence ratio was 0.998.
CATTCACTGG was tested, and the switch fluorescence ratio was 1.01.
CATTCCATCT gave a switch fluorescence ratio of 1.03.
CATTCCTGGA was tested, and the switch fluorescence ratio was 1.
For CATTCGGAGC, the switch fluorescence ratio was 1.2.
In the case of CATTCTACT, the switch fluorescence ratio is reported as 1.03.
With CATTGAACCC the switch fluorescence ratio was 1.53.
In the case of CATTGAAGGA, the switch fluorescence ratio is reported as 0.986.
CATTGACAGC gave a switch fluorescence ratio of 1.01.
CATTGAGGAA was tested, and the switch fluorescence ratio was 1.
In the case of CATTGCAGCC, the switch fluorescence ratio is reported as 1.
CATTGCGGAG was tested, and the switch fluorescence ratio was 1.02.
For CATTGGAGCC, the switch fluorescence ratio was 0.956.
In the case of CATTGGCGTC, the switch fluorescence ratio is reported as 1.02.
Sequence CATTGGGAGC has a switch fluorescence ratio of 1.03.
In the case of CATTGGGGCC, the switch fluorescence ratio is reported as 1.07.
CATTGGTACT showed a switch fluorescence ratio of 1.
CATTGTAG gave a switch fluorescence ratio of 0.997.
CATTGTGTTC gave a switch fluorescence ratio of 1.06.
For CATTGTTCAA, the switch fluorescence ratio was 1.01.
In the case of CATTGTTCCC, the switch fluorescence ratio is reported as 0.961.
With CATTGTTGAA the switch fluorescence ratio was 0.953.
For CATTGTTGGG, the switch fluorescence ratio was 0.982.
For CATTGTTTGC, the switch fluorescence ratio was 1.
Sequence CATTTAAACA has a switch fluorescence ratio of 0.99.
In the case of CATTTAGTC, the switch fluorescence ratio is reported as 0.999.
In the case of CATTTATCCC, the switch fluorescence ratio is reported as 0.968.
With CATTTATCGT the switch fluorescence ratio was 1.
Work on CATTTCCACG yielded a switch fluorescence ratio of 1.04.
Sequence CATTTCGCAT has a switch fluorescence ratio of 2.99.
In the case of CATTTGGTTA, the switch fluorescence ratio is reported as 0.949.
Sequence CATTTGTAAC has a switch fluorescence ratio of 1.05.
Sequence CATTTTAAAT has a switch fluorescence ratio of 0.996.
With CATTTTCACC the switch fluorescence ratio was 1.02.
For CATTTTGATT, the switch fluorescence ratio was 0.99.
CATTTTTCTT was tested, and the switch fluorescence ratio was 0.997.
In the case of CATTTTTGAC, the switch fluorescence ratio is reported as 1.01.
Work on CCAAACTCGC yielded a switch fluorescence ratio of 1.06.
CCAAATCGGT showed a switch fluorescence ratio of 0.994.
In the case of CCAACCTGGG, the switch fluorescence ratio is reported as 1.04.
With CCAACGGATA the switch fluorescence ratio was 1.1.
Work on CCAACGGATG yielded a switch fluorescence ratio of 1.06.
In the case of CCAACTGGAG, the switch fluorescence ratio is reported as 1.02.
CCAAGCACGG showed a switch fluorescence ratio of 1.47.
CCAAGGCAC showed a switch fluorescence ratio of 1.43.
In the case of CCAAGGGGGT, the switch fluorescence ratio is reported as 1.4.
In the case of CCAATAAAGA, the switch fluorescence ratio is reported as 0.985.
With CCAATACAAC the switch fluorescence ratio was 1.41.
CCAATCTTAG gave a switch fluorescence ratio of 0.979.
For CCAATGAAGA, the switch fluorescence ratio was 0.971.
CCAATGAGAA gave a switch fluorescence ratio of 0.996.
In the case of CCAATGAGCG, the switch fluorescence ratio is reported as 1.03.
CCAATGGAGA was tested, and the switch fluorescence ratio was 1.02.
CCAATGGGCG was tested, and the switch fluorescence ratio was 1.03.
Sequence CCAATTGTGA has a switch fluorescence ratio of 0.98.
CCACAAATGT showed a switch fluorescence ratio of 1.03.
Work on CCACAAATTC yielded a switch fluorescence ratio of 1.36.
With CCACAATTGG the switch fluorescence ratio was 1.02.
Sequence CCACACCCAT has a switch fluorescence ratio of 1.2.
CCACAGGGGG was tested, and the switch fluorescence ratio was 1.79.
With CCACATCAAT the switch fluorescence ratio was 1.45.
For CCACCCCAAT, the switch fluorescence ratio was 2.97.
CCACCTCTCA gave a switch fluorescence ratio of 1.07.
CCACGAACGG gave a switch fluorescence ratio of 1.47.
Sequence CCACGACGTG has a switch fluorescence ratio of 0.986.
Work on CCACGCATGG yielded a switch fluorescence ratio of 3.95.
CCACGCTGGT showed a switch fluorescence ratio of 1.16.
In the case of CCACGCTGTA, the switch fluorescence ratio is reported as 1.14.
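Note: ATP exposure 15 min at 22 °C before imaging.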
